The supplement of paper PMC3334620
The full ranking holds about 33,000 sequences; the median of “E-score (-0.5 to 0.5)” is about -0.035, and the highest 2% start at about 0.35. The list shows a part of the results.

Target: T1, Pdr3 (UniProt P33200)
T1 sequence: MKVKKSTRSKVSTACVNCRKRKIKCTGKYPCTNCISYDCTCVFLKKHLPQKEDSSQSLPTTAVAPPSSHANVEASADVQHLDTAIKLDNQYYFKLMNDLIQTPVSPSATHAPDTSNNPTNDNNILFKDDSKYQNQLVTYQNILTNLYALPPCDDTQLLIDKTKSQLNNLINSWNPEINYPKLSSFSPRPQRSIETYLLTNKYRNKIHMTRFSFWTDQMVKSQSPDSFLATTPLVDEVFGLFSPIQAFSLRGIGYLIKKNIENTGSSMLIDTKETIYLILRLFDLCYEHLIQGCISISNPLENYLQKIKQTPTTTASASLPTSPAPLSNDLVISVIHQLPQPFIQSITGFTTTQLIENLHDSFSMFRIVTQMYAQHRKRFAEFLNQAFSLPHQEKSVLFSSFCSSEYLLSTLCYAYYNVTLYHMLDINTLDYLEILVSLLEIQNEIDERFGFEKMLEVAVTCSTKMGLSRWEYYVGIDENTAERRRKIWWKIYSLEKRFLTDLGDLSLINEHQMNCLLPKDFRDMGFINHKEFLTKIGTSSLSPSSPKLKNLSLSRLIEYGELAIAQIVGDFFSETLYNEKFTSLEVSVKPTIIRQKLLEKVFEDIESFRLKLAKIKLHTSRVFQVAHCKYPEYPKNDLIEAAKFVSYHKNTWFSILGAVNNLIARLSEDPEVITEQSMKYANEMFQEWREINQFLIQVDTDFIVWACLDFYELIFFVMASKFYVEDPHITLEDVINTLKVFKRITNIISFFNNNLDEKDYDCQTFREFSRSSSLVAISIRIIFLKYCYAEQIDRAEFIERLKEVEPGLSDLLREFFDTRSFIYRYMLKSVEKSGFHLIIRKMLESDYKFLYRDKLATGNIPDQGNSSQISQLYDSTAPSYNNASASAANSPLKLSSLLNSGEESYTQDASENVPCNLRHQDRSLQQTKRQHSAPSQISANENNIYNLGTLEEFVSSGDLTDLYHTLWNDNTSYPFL
Assay: PBM E-score (8-mer binding enrichment) (E-score (-0.5 to 0.5)); higher = stronger / more preferred TF binding; most listed sequences are background and not binding sites
Settings: protein concentration: 200 nM; construct: GST-full length
In short: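 Masliner-normalised scans of fluorescent anti-GST signal were the basis for scoring. That signal came from GST-tagged yeast transcription factors applied at about 100-200 nM to double-stranded universal all-10-mer Agilent arrays on fresh or once-stripped slides. Each ungapped eight-base word, pooled with its reverse complement, received an E-score from the Universal PBM Analysis Suite.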

Sequence	PBM E-score
AGGCTTAC	-0.123
CGGCATAC	0.168
AGGCTGAT	-0.18
CCAAAAAA	0.0515
GCTCCCCC	-0.215
GGAGCGAC	0.0529
CGTTGGGC	-0.00619
GAACTCTA	-0.107
GAACGTAC	-0.122
ATAACTCA	0.00779
CTCTTTAA	-0.0879
ACTCTTGA	-0.186
GGGCATAA	-0.079
TCAATTAA	-0.0675
CATACGTA	-0.00389
GTGATCTA	0.0739
ACCACATA	-0.0748
ACGCATCG	-0.13
GCAGTTAA	0.0152
TCCTACCA	-0.135
ATTCCTTG	-0.0356
GAAGGAAA	-0.00233

Sequence	PBM E-score
TGAGGGCA	-0.064
GGGTCAAC	0.203
ACATCTAC	0.0404
GGGTTCGA	-0.0225
AGCCGCAC	0.0341
AACGTCAG	-0.241
CATCGTTC	-0.0901
AACGCTGT	-0.137
AATATCCC	0.215
ATTAGGGC	-0.0874
CAAATGCG	0.0429
ATTGAACC	-0.0416
CAGAGTTC	-0.0462
CCCGCTAG	0.0933
GCTAAAAC	-0.113
CGCCTCAC	0.152
GAACTTCA	-0.0972
GGTGTCAA	-0.0313
AGTGCCGA	0.138
GAGATAGC	-0.109
GAATTTCA	-0.0569
CTCATTGC	-0.0175

Sequence	PBM E-score
CCAGGCAC	-0.0183
CCCTCTCG	-0.125
CAACCAAC	-0.00416
TTCGGAAA	0.391
ATTAGATA	-0.0766
AGCCTCCA	-0.164
CTAGCCTA	-0.105
CCTGACGA	-0.0795
CGCCCTTC	-0.0257
AGGACGGG	0.0362
TAGCGTAA	0.0306
CTCTGCGC	0.0675
AGTATTGC	-0.0115
GGTACAAC	-0.0241
ACTGATTG	-0.196
AACCTATT	-0.0855
AGGGAACG	-0.0864
CCCTAAGA	-0.243
CCAAGACC	-0.103
ATCGTTCA	-0.155
AGATATAA	0.0365
CTTTTTCA	-0.211

Sequence	PBM E-score
CTAAAGAC	-0.191
GGCCTAAC	0.00244
CAACTGCC	0.0196
GCTAGGGA	-0.123
ATCCACCC	0.0371
TCAGTGAA	-0.055
ACCTGGCG	-0.0867
CCATGATC	-0.115
AAAAATCC	0.103
GATCCAGC	0.0828
ATTCTGGC	-0.176
AAAGAAAC	0.0186
AGCTATAA	-0.181
CGGGGAAG	0.23
ATGAGCAC	-0.164
ACGTGAAG	-0.237
CCACGTAC	-0.206
CAGCGAGA	-0.027
ACCTACTA	-0.138
TTACCGAA	0.105
